From publication PMC6919601, “Identification of Plasmodium dipeptidyl aminopeptidase allosteric inhibitors by high throughput screening” (PLoS ONE, 2019) come the findings set out here.

Hit rate of the full screen: of about 110,000 compounds, about 230 (0.21%) showed an effect of 50% or more. Some of the results follow.
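Also: 30 min substrate incubation versus DMSO and 10 µM JCP410 controls.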

Sequence of DPAP1 (Q8IIJ9 whole entry, looked up): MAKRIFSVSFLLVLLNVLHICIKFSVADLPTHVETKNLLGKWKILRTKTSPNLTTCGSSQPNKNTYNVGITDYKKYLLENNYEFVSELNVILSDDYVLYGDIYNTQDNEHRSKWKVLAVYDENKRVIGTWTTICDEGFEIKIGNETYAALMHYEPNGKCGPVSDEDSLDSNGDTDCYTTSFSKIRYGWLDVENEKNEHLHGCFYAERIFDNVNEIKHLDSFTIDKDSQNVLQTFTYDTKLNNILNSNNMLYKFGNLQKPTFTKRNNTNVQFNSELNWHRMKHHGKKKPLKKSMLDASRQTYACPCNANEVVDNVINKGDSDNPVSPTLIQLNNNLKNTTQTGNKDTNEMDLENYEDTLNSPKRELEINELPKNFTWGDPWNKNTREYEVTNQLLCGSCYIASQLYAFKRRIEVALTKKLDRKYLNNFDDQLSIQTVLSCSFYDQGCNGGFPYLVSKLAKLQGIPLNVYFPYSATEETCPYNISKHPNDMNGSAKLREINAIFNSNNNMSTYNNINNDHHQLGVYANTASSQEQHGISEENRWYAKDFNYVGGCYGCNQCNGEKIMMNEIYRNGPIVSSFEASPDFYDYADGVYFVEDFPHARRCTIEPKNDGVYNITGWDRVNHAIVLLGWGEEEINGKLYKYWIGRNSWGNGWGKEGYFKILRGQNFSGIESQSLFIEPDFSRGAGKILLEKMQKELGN

The test concerns the target DPAP1 (Plasmodium falciparum, UniProt Q8IIJ9). Put plainly: primary screen, percent inhibition; read by cleavage of a fluorogenic dipeptide substrate; higher = more effect of the substance. Also on record: species or system P. falciparum D10 trophozoite lysates; single well.
As for `COc1ccc(S(=O)(=O)N(CC(=O)N2CCN(c3ccccc3)CC2)Cc2ccccc2)cc1`, the “% Inhibition @ 10 uM” value was determined as 3.24%. `COC(=O)c1c(NC(=O)C(F)(F)F)sc(Cc2ccccc2)c1C`: the “% Inhibition @ 10 uM” value is -0.053%.

For `O=[N+]([O-])c1ccc(S(=O)(=O)NCCCN2CCOCC2)cc1`, the “% Inhibition @ 10 uM” value amounted to 3.25%. In the case of `O=c1c2ccccc2cnn1Cc1nnc(S)n1-c1ccc(F)c(Cl)c1`, the “% Inhibition @ 10 uM” value came to 19.9%. Then `Cn1c2ccccc2c2nn3c(SCC(=O)O)nnc3nc21`, with 0.884%; and `CCn1c2ccccc2c2cc(CN3CCN(c4ccccc4F)CC3)ccc21`, with 5.32%; and `COc1ccc(C2=NCCc3cc(OC)c(OC)cc32)cc1OC`, with -3.86%. `COc1ccccc1-n1c(S)nnc1CNC(=O)c1cc(Cl)ccc1Cl`: the “% Inhibition @ 10 uM” value is given as -0.339%. `Cc1ccc(S(=O)(=O)N(CC(=O)NCc2ccccn2)c2cccc(Br)c2)cc1`: the “% Inhibition @ 10 uM” value is -16.1%. As to `C=CCOc1ccc(C2C(C#N)=C(N)OC3=C2C(=O)CCC3)cc1` (centres unmarked), the “% Inhibition @ 10 uM” value is reported as -0.99%. Consider `Cc1nn(C)c(C)c1/C=C(/C(=O)c1ccc(Cl)cc1Cl)n1cncn1`, for which the “% Inhibition @ 10 uM” value was determined as 0.00706%. The figure for `CCCCS(=O)(=O)CC(O)COc1ccc(Cl)cc1` (centres unmarked) is -5.65%.

`O=S(=O)(c1ccc(Cl)cc1)c1cnc2cc3c(cc2c1O)OCCO3`: the “% Inhibition @ 10 uM” value came out at 1.62%. The figure for `CCOc1ccc(C(=O)Nc2ccc(Br)cc2C(=O)O)cc1Cl` is 3.53%; for `CCCCOc1ccc(S(=O)(=O)NCc2ccccc2)cc1` it is 4.18%; for `Cc1cc(C)c2oc(C(=O)N3CCN(C)CC3)cc(=O)c2c1` it is -5.08%. As to `CCN1C(=O)CCN(C(C)=O)c2ccccc21`, the “% Inhibition @ 10 uM” value is on record as -1.98%. Regarding `CC(C)(C)C(/C=C\c1ccc(Cl)cc1Cl)n1nnnc1C1(Nc2ccccc2)CCCCC1` (centres unmarked), the “% Inhibition @ 10 uM” value is reported as 0.00784%. Then `Cc1cccc(NC(=O)c2cccc3ccccc23)c1C`, with 6.6%. Take `O=C(COc1ccc(NC(=O)c2cccs2)cc1)c1ccc(Br)cc1`: the “% Inhibition @ 10 uM” value was 0.408%. Then `O=S(=O)(Cc1ccccc1)N1CCC(Oc2ccc(-n3cnnn3)cc2)CC1`, with -4.67%; and `COc1ccc(CN2C(=O)c3cccnc3C2=O)cc1S(=O)(=O)NC1CCCc2ccccc21` (centres unmarked), with 4.9%; and `O=C(CC1Nc2ccccc2NC1=O)Nc1ccc(Br)cc1` (centres unmarked), with 20.2%. The figure for `C=C(C)CN(CC)Cc1[nH]cnc1C` is -1.41%; for `Cc1ccc(NC(=O)Nc2c(C)nn(Cc3ccccc3Cl)c2C)cc1` it is -0.67%. Then `Cc1ccc2c(CNC3CCCCCC3)c(C(=O)O)[nH]c2c1`, with -2.97%. Regarding `Cn1c(=O)[nH]c(=O)c2c1nc(N1CCN(Cc3ccccc3)CC1)n2CCCSc1ncccn1`, the “% Inhibition @ 10 uM” value is recorded as -4.54%. Then `O=C(c1nnc(Cc2ccc(F)cc2Cl)o1)N1CCCC1`, with 1.49%; and `CC1CN(C)C(C)C/C1=N/OC(=O)c1ccc(Br)cc1` (centres unmarked), with -4.27%. Then `Cc1ccc(NC(=O)c2ccccc2Cl)nc1`, with -3.43%.

For `OC1CCN(Cc2c(Cl)cccc2Cl)C1` (centres unmarked), the “% Inhibition @ 10 uM” value came to 4.55%. Then `COCCNC(=O)Cn1cc(S(=O)(=O)Cc2cccc(Cl)c2)c2ccccc21`, with 5.15%; and `Cc1ccc(NCN2C(=O)C3C4CCC(C4)C3C2=O)cc1` (centres unmarked), with 6.4%.

For `Cc1ccc(C)c(NC(=O)CSc2nc(C)cc(C)n2)c1`, the “% Inhibition @ 10 uM” value is reported as -4.06%. In the case of `CC1(C)OC(c2ccccc2)CC1=O` (centres unmarked), the “% Inhibition @ 10 uM” value came out at 1.54%. On to `NC(=O)C1CCN(c2nc3c(S(=O)(=O)c4ccccc4)nnn3c3ccsc23)CC1`, for which the “% Inhibition @ 10 uM” value is -6.55%. In the case of `COc1cccc(NC(=O)c2ccc(C(C)(C)C)cc2)c1`, the “% Inhibition @ 10 uM” value is -1.25%. Then `OC(CN1CCOCC1)c1ccc2cc[nH]c2c1` (centres unmarked), with -1.08%; and `COc1ccccc1NC(=O)CCCC(=O)O`, with -4.35%. For the molecule `CCOC(=O)c1oc2c(c1C)/C(=N/O)CCC2`, the “% Inhibition @ 10 uM” value is -2%. As for `Cc1c(Cl)cccc1-n1nnc(-c2nsc(NC(=O)c3ccccc3)n2)c1C`, the “% Inhibition @ 10 uM” value came out at 1.78%. Then `CC1=C(C(=O)Nc2ccccc2C)C(c2ccccc2)n2c(s/c(=C/c3cnn(C)c3)c2=O)=N1` (centres unmarked), with -0.28%; and `CCC(C)NC(=O)Cn1ncc2c3ccccc3n(C)c2c1=O` (centres unmarked), with 8.86%.

Regarding `CC(C)C[C@@H](C(=O)NCC#N)c1cccc(C#CCN2CCOCC2)c1`, the “% Inhibition @ 10 uM” value was -10.1%. Regarding `c1ccc(N2CCN(Cc3ccc4c(c3)OCO4)CC2)nc1`, the “% Inhibition @ 10 uM” value was -15.9%.

For `O=C(Nc1cc(Cl)cc(Cl)c1)c1cccs1`, the “% Inhibition @ 10 uM” value is recorded as -4.91%. With `COC(=O)NCC(c1cccnc1)N1CCOCC1` (centres unmarked), the “% Inhibition @ 10 uM” value is -9.28%. For `O=C(Nc1ccccc1[N+](=O)[O-])c1cccc(S(=O)(=O)N2CCCCC2)c1`, the “% Inhibition @ 10 uM” value is -3.52%. As to `Cc1cc(C)cc(NS(=O)(=O)c2ccc(NC(=O)C3CC3)cc2)c1`, the “% Inhibition @ 10 uM” value amounted to 0.245%. The figure for `O=C1CCC(C(=O)O)(c2ccccc2)N1Cc1ccccc1` (centres unmarked) is -5.28%; for `O=C(Cn1cc(S(=O)(=O)Cc2cccc(F)c2)c2ccccc21)N1CCCC1` it is 4.54%; for `O=C(O)CSc1ncnc2scc(-c3ccc(Br)cc3)c12` it is 1.62%. `COc1ccc(C2OC(C)CN(C(=O)c3ccc4c(c3)OCO4)O2)cc1OC` (centres unmarked): the “% Inhibition @ 10 uM” value came to 0.343%. On to `Clc1ccc(Nc2n[nH]c(CSc3ccccc3)n2)cc1`, for which the “% Inhibition @ 10 uM” value is 3.53%. With `Cc1nc2sc3c(NCC(C)C)ncnc3c2c2c1COC(C)(C)C2`, the “% Inhibition @ 10 uM” value is -1.33%. Consider `CCn1ncc(Br)c1C(=O)Nc1ccc(C)cc1C`, for which the “% Inhibition @ 10 uM” value is -5.46%. As to `Cc1ccccc1CSCc1ccc(C(=O)NC2CCCCC2)o1`, the “% Inhibition @ 10 uM” value is recorded as 4.81%. For `CCCN1CN(Cc2ccco2)c2nc3ccccc3n2C1`, the “% Inhibition @ 10 uM” value is listed as -5.2%. As to `O=C(CCCOc1ccc(Cl)cc1Cl)Nc1cnc(O)nc1O`, the “% Inhibition @ 10 uM” value is -3.64%. Take `CN(CC(=O)NCc1cccs1)S(=O)(=O)c1ccc2[nH]c(-c3ccccc3)nc2c1`: the “% Inhibition @ 10 uM” value is recorded as 3.88%. Consider `Cc1ccc(NC(=O)C(C)N2C(=O)c3ccccc3C2=O)c(C)c1` (centres unmarked), for which the “% Inhibition @ 10 uM” value was 1.15%.

As for `Cc1[nH]c2ccccc2c1C(Nc1ccccn1)c1ccccc1Cl` (centres unmarked), the “% Inhibition @ 10 uM” value was -5.15%.

As for `COc1ccc(-c2noc(CNS(=O)(=O)c3ccc(F)cc3)n2)cc1`, the “% Inhibition @ 10 uM” value was -1.22%. As to `CC(C)C1CC(c2ccccc2)(C(CN)CO)CCO1` (centres unmarked), the “% Inhibition @ 10 uM” value worked out at 2.4%. Regarding `c1ccc(-c2nc3c4ccccc4nc(N4CCCCCC4)n3n2)cc1`, the “% Inhibition @ 10 uM” value is 0.981%. Then `CCOc1ccc(C2Nc3cccc4cccc(c34)N2)cc1OC`, with -5.06%. Consider `N#C/C(=C\c1ccccc1Cl)C(=O)NCc1cccnc1`, for which the “% Inhibition @ 10 uM” value worked out at 10.8%.

On to `O=C(/C=C\Nc1ccc(S(=O)(=O)c2ccccc2)cc1)c1ccccc1`, for which the “% Inhibition @ 10 uM” value was -1.91%. With `CCOCN1C(=O)c2cccc3cccc1c23`, the “% Inhibition @ 10 uM” value amounted to 2.22%.

Take `Cc1cc(C)nc(SC(C(=O)O)c2ccccc2)n1` (centres unmarked): the “% Inhibition @ 10 uM” value was 6.29%. Regarding `COc1cccc(OCCCN2CCOCC2)c1`, the “% Inhibition @ 10 uM” value came out at 0.815%. In the case of `Cn1c(NCCCO)nc2c(c1=O)C1(CCCCC1)Cc1ccccc1-2`, the “% Inhibition @ 10 uM” value is 5.24%. As to `CCOC(=O)C1=C(CSc2nc3ccccc3s2)NC(=O)NC1c1ccc(OC)cc1` (centres unmarked), the “% Inhibition @ 10 uM” value is given as -2.19%. The figure for `COc1ccc2cc3cc(C(=O)NCCN(C)C)oc3nc2c1` is -1.54%; for `COc1ccc(NC(=O)c2cccc(Cn3cc(Br)cn3)c2)cn1` it is 3.94%; for `C=CCSc1nc2c(c(=O)n1CC)C1(CCCC1)Cc1ccccc1-2` it is -1.6%. Then `COc1ccc(C)cc1NC(=O)C1CCN(C(=O)c2cccs2)CC1`, with -0.425%; and `COc1ccc(Nc2cc(C)nc3ccc(OC)cc23)cc1`, with 1.7%. With `COc1cc2c(cc1OC)C1(CCCCC1)CN(CCCc1ccccc1)C2`, the “% Inhibition @ 10 uM” value was determined as 5.48%. The figure for `Cc1nn(C(C)C(=O)N2CCC(N3CCCCC3)CC2)c(=O)c2nn(-c3ccccc3)c(C)c12` (centres unmarked) is 1.45%; for `CC1=C(C(=O)OCc2ccccc2)C(c2ccc(C)cc2)NC(=O)N1` (centres unmarked) it is -4.77%; for `Cc1ccsc1C1C(C#N)=C(N)OC2=C1C(=O)CCC2` (centres unmarked) it is -1.44%.

Turning to `COc1ccccc1NC1CC2=C(CC1(C)C)C(C)(C)CCC2` (centres unmarked), the “% Inhibition @ 10 uM” value turned out to be 2.94%. With `CC(NC(=O)c1cc(S(=O)(=O)N2CCOCC2)cn1C)c1ccccc1` (centres unmarked), the “% Inhibition @ 10 uM” value was -6.65%. On to `Cc1ccc(OCC(=O)Nc2nc[nH]n2)c(Br)c1`, for which the “% Inhibition @ 10 uM” value is on record as -0.85%. Then `COc1ccc(-c2nc(CS(=O)CC(=O)NCCCOC(C)C)c(C)o2)cc1` (centres unmarked), with -1.05%. Turning to `CCc1ccc(-n2c(SCC(=O)Nc3cc(C)[nH]n3)nc3nncc-3c2O)cc1`, the “% Inhibition @ 10 uM” value is on record as -3.21%. For the molecule `CCn1ncc(C2=NOC(C(=O)NCc3cccnc3)C2)c1C` (centres unmarked), the “% Inhibition @ 10 uM” value worked out at 1.7%.

As for `O=C(CSc1nnc(CNC(=O)c2c(F)cccc2Cl)o1)NCc1ccco1`, the “% Inhibition @ 10 uM” value is reported as -3.39%. The figure for `COc1cc(Br)c(CCNC(=O)Cc2ccccc2)cc1OC` is 5.65%; for `c1ccc(-c2nnc(-c3ccncc3)o2)cc1` it is -1.86%. In the case of `Cc1ccc2occ(CC(=O)N(Cc3ccccc3)C3CCS(=O)(=O)C3)c2c1` (centres unmarked), the “% Inhibition @ 10 uM” value is given as 1%. Take `CCN(Cc1nc(-c2ccc(C)cc2)no1)S(=O)(=O)c1ccc(C)cc1`: the “% Inhibition @ 10 uM” value is on record as -0.946%.

With `N#CC1=C(N)Oc2[nH]nc(-c3ccccn3)c2C1c1cccc(F)c1` (centres unmarked), the “% Inhibition @ 10 uM” value was -0.759%.

Take `CCC1(C)Cc2c(c(S)n(C)c(=N)c2C#N)CO1` (centres unmarked): the “% Inhibition @ 10 uM” value is given as -1.1%. The figure for `COc1ccc(C2C(C#N)=C(N)OC3=C2C(=O)CC(c2ccccc2)C3)cc1` (centres unmarked) is 3.54%. Then `COc1cc(NC(=O)COc2ccccc2C)c(OC)cc1Cl`, with 1.39%; and `Cc1cc2nc(SCCN3CCCCC3)[nH]c2cc1C`, with -1.99%.

As to `CC(Nc1nc2nonc2nc1N1CCCC1)c1ccccc1` (centres unmarked), the “% Inhibition @ 10 uM” value was -4.93%. For `CCOC(=O)N1CCC2(CC1)OC(=O)C(C)=C2C(=O)NCCN(C)C`, the “% Inhibition @ 10 uM” value is listed as 2.11%. Take `COc1ccc(C=C2C(=O)NC(=O)NC2=O)c(OC)c1`: the “% Inhibition @ 10 uM” value is 2.79%. Consider `O=C(COCc1cc(-c2ccc(F)cc2)on1)NCCC1=CCCCC1`, for which the “% Inhibition @ 10 uM” value is reported as -4.96%. In the case of `O=C(O)C1CC=CCC1C(=O)Nc1ccc(N2CCN(c3ccccc3)CC2)cc1` (centres unmarked), the “% Inhibition @ 10 uM” value was determined as 1.84%. For `CCC(C)c1ccccc1OCC(=O)Nc1ccc(S(=O)(=O)N2CCCC2)cc1` (centres unmarked), the “% Inhibition @ 10 uM” value was determined as 3.57%.
